The whole screen tested about 52,000 compounds, of which about 4,300 (8.3%) were called active. Cut-off read from the data, not from the text of the source: active = survival mostly below about 52% (no sharp cut-off); inactive = mostly above about 56%. The list shows a part of the results.
Each compound was assayed on DeltatarO mutant (assay: S. aureus survival, RN4220 and DeltatarO strains – OD600, teichoic acid synthesis inhibitors, primary screen (AID 463173)). Conditions: S. aureus RN4220 wild type/DeltatarO growth, OD600, 18 h, hits give low values, screened at 18.75 µg/mL (by protocol).
With `CCc1ccc(NC(=O)CSc2nccn2-c2ccc(OC)cc2)cc1` the survival was inactive: 107%. With `CC1(C(=O)Nc2cccc(Br)c2)Cc2ccccc2C(=O)O1` (stereo not given) the survival was inactive: 84%. In the case of `CC(=O)N1CCCc2cc(S(=O)(=O)N3CCC(C(=O)NC4CCC(C)CC4)CC3)ccc21` (stereo not given), the survival is reported as inactive: 66%. `CCc1ccc(N2C(=O)C3C4CCCC4=C4CCCC4C3C2=O)cc1` (stereo not given) was tested, and the survival was inactive: 76%. `Cc1ccc2nc(N3CCN(Cc4nnnn4C4CCCC4)CC3)c(C#N)cc2c1` was tested, and the survival was inactive: 72%. In the case of `COCCCNC(=O)CCC(=O)N1Cc2cccc(OC)c2Oc2ncccc21`, the survival is reported as inactive: 87%. `CCCN1C(=O)c2[nH]nc(-c3ccccc3O)c2C1c1ccc(OCc2ccccc2)c(OC)c1` (stereo not given) was tested, and the survival was active: 44%. With `COc1cccc2c1cc1c(=O)n(CC(=O)NC3CCCCC3)nc(C)n12` the survival was inactive: 96%. For `COc1cc(C(=O)N2CCN(c3ccc(Nc4ccc(C)cc4)nn3)CC2)cc(OC)c1OC`, the survival was inactive: 78%. For `O=C(CC(C(=O)O)C1CCCO1)Nc1ccc(F)cc1` (stereo not given), the survival was inactive: 95%. With `Cc1ccc(NC(=O)C(Cc2ccccc2)NS(=O)(=O)c2ccc3c(c2)oc(=O)n3C)cc1F` (stereo not given) the survival was inactive: 83%. In the case of `O=C(Nc1nc2n(n1)C(c1ccc(F)cc1)C=C(c1ccccc1)N2)c1ccc(Cl)cc1` (stereo not given), the survival is reported as inactive: 48%. For `NC(=O)CSc1oc(-c2ccco2)nc1S(=O)(=O)c1ccc(Cl)cc1`, the survival was inactive: 70%. With `Cc1ccc(NC(=O)c2cc3cc(C)ccc3n2C)cc1` the survival was inactive: 61%. In the case of `CCOC(=O)c1ccc(NC(=O)Cn2c(=O)cc(C)c3c(C)nn(-c4cccc(F)c4)c32)cc1`, the survival is reported as inactive: 69%. In the case of `COc1ccc(C2CC(=O)C(C=NCC(C)C)=C(O)C2)cc1` (stereo not given), the survival is reported as inactive: 81%. In the case of `CCCc1cnc2c(c1SCC(=O)N1CCC(C)CC1)c(=O)n(C)c(=O)n2C`, the survival is reported as inactive: 96%. For `O=C(NCCc1ccccc1)c1sc2ncccc2c1-n1cccc1`, the survival was inactive: 94%. In the case of `CCC1CCCCN1C(=O)Cn1c(=O)oc2cc(S(=O)(=O)N3CCCCC3)ccc21` (stereo not given), the survival is reported as inactive: 80%. With `Cc1nn(Cc2ccccc2Cl)c(C)c1NC(=O)c1cc(C(C)C)on1` the survival was inactive: 60%. With `Cc1ccc(C(=O)c2oc3ccccc3c2NC(=O)Cc2coc3cc(C)ccc23)cc1` the survival was inactive: 74%. In the case of `COc1ccc(CCNC(=O)Cn2c(=O)n(-c3ccc(C)c(C)c3)c(=O)c3c(C)c(C)sc32)cc1OC`, the survival is reported as inactive: 64%. `CCc1ccccc1NC(=O)Cn1ccn(-c2cc(C)cc(C)c2)c(=O)c1=O` was tested, and the survival was inactive: 67%. With `Clc1cccc(CSc2nncn3c2cc2sccc23)c1` the survival was inactive: 57%. For `COc1ccc(OC)c(C(=O)c2c(N)c(-c3nc(-c4ccc(C)c(C)c4)cs3)c3ccccn23)c1`, the survival was inactive: 105%.
